Test results as given in PubChem BioAssay AID1631 (National Center for Advancing Translational Sciences (NCATS), 2009).
Hit rate of the full screen: of about 260,000 compounds, about 890 (0.34%) were called active. The inconclusive results got no clear call from the source; some entries with a clear call stand among them for comparison. The call rests on the fitted dose curve; in most records, active means well fitted activation curve with a large enough effect; inconclusive means small, poorly fitted or top-dose-only effect; inactive means no such curve, though single readings can be large or run the other way. Potencies of inconclusive entries are left out as doubtful fits.

What follows are compounds tested against Pyruvate kinase PKM (Homo sapiens) (UniProt P14618) (assay: qHTS Assay for Activators of Human Muscle isoform 2 Pyruvate Kinase). Conditions: purified PKM2, Kinase-Glo ATP luminescence; Potency: activation; activation: at 57.5 µM (top of the series), 0% is enzyme alone, no compound.
How it was run: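 Purified hPK-M2 (>95% pure) converted ADP (0.1 mM final) to ATP with 0.5 mM PEP in 50 mM imidazole pH7.2, KCl, MgCl2, Tween 20, BSA; 1 h at room temperature. ATP detected by Kinase-Glo luminescence.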
Further: nearly all actives have a fitted effect of over 55% in size.
On the % scale 0 is the no-effect control and ±100 the full control effect; potency means the concentration at half of the fitted maximal effect; tags describe the fitted curve by direction and shape.

Sequence of UniProt P14618 (P14618 whole entry, looked up, canonical isoform): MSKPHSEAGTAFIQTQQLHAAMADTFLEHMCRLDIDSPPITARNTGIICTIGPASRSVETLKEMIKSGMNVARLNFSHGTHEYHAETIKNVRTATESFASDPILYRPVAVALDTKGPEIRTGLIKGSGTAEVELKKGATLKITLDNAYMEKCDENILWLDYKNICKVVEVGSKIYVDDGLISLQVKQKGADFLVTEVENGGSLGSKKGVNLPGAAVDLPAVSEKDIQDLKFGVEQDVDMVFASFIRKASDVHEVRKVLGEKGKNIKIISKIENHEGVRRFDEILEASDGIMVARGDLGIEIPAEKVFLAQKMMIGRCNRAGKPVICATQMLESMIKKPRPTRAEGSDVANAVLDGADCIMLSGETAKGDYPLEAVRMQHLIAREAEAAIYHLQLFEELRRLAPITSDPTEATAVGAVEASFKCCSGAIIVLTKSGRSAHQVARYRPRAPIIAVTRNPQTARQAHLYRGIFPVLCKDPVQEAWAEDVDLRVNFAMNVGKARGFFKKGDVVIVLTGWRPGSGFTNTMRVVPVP

Compound | Potency | activation
O=C(O)c1ccc(-n2cccc2/C=C2/NC(=O)N(c3cccc(Cl)c3)C2=O)cc1 | inconclusive [rising, partial curve] | –
CCN1C(=O)c2cccc3c(S(=O)(=O)Nc4ccccc4)ccc1c23 | active: 3.98 µM | –
CC(C)CCOc1ccc(C2(C)NC(=O)NC2=O)cc1 (centres undefined) | – | inactive: -0.386%
O=C1C=CC(=O)N1CCNc1ncc(C(F)(F)F)cc1Cl | active: 17.8 µM | –
COC(=O)C1=C(COc2ccc(F)cc2)NC(=O)NC1c1ccc(C)cc1C (centres undefined) | – | inactive: -9.04%
O=S(=O)(c1cccc2nonc12)N1CCN(c2ccccc2F)CC1 | inconclusive [rising, single point] | –
COc1ccc2occ(C(=O)c3coc4ccc(O)c(CN(C)C)c34)c2c1 | inconclusive [rising, single point] | –
CCS(=O)(=O)Nc1ccc(C2=NN(C(=O)c3ccco3)C(c3cccs3)C2)cc1 (centres undefined) | inconclusive [rising, partial curve] | –
COC(=O)c1cccc(C23CC4(C2)[C@H](CN(Cc2ccc(C(F)(F)F)cc2)[C@@H]4c2ccccc2)C3c2ccccc2)c1 (some centres undefined) | inactive | –
Cc1ccccc1NS(=O)(=O)c1ccc2[nH]cc(C(=O)N(C)Cc3ccco3)c(=O)c2c1 | inconclusive [rising, partial curve, poor fit] | –
O=C1CCCC2=C1C(c1ccc(O)c(O)c1)Nc1ccc3ncccc3c12 (centres undefined) | inconclusive [rising, partial curve] | –
Clc1ccc2nc(CSc3ncn[nH]3)cn2c1 | inconclusive [rising, partial curve] | –
C/C(=N\NC(=O)c1c(Cl)c(C)nn1C)c1ccc(NC(=O)C2CCC2)cc1 | inconclusive [rising, single point] | –
CCOC(=O)c1c(-c2ccc(C)cc2)csc1NC(=O)c1cc2ccccc2oc1=O | – | inactive: 2.92%
O=c1cc(-c2ccc(Cl)c(Cl)c2)[nH][nH]1 | inconclusive [rising, single point] | –
O=C1NN(c2ccc(Cl)cc2)C(=O)/C1=C\c1ccc(-c2cccc(C(=O)O)c2)o1 | – | inactive: -0.977%
Cc1ccc(NC(=O)c2oc3ccc(S(=O)(=O)N4CCC5(CC4)OCCO5)cc3c2C)cc1C | – | inactive: -3.52%
CC(C)=NNc1nc2c(c(=O)n(C)c(=O)n2C)n1CCc1ccccc1 | inconclusive [rising, single point] | –
c1ccc(CCc2nn3c(Cn4cnc5ccccc54)nnc3s2)cc1 | inconclusive [rising, partial curve] | –
CCn1c2ccccc2c2c3ncc4cccn4c3ccc21 | – | inactive: 3.3%
CS(=O)(=O)c1ccc(C(=O)Nc2cc(S(C)(=O)=O)ccc2Cl)cc1 | – | inactive: -16.1%
CC(=O)N1CCc2cc(S(=O)(=O)NCCC(=O)NC3CCCc4ccccc43)ccc21 (centres undefined) | – | inactive: -1.64%
c1coc(CNc2nc3sc4c(c3c3ncnn23)CCCC4)c1 | inconclusive [rising, single point] | –
Cc1ccc(CCNC(=O)c2cc(C)nn2-c2ccccc2)cc1 | – | inactive: -0.992%
O=C(NCCCc1ccccc1)c1ccccc1O | – | inactive: -14.4%

Compound | Potency | activation
CC(=O)c1cccc(NS(=O)(=O)c2ccc3c(c2)oc(=O)n3C)c1 | inconclusive [rising, partial curve] | –
CCOc1ccc2nc(SCC(=O)Nc3cc(C)on3)c(C)cc2c1 | inconclusive [rising, full curve] | –
NC(=O)CCC(NS(=O)(=O)c1ccc(Cl)cc1)C(=O)NCC1CCCCC1 (centres undefined) | – | inactive: 1.8%
CCOC(=O)c1c(C)[nH]c(C(=O)Cn2nnc(-c3ccccc3Cl)n2)c1C | inconclusive [rising, full curve, poor fit] | –
O=C1C(Cl)=C(Nc2ccc3cn[nH]c3c2)C(=O)c2ccccc21 | – | inactive: -3.2%
CCOC(=O)N1CCc2c(sc3ncn(Cc4ccc(F)cc4)c(=O)c23)C1 | inconclusive [rising, single point] | –
CC(SCc1cc(=O)n2c([nH]c3ccccc32)c1C#N)C(=O)O (centres undefined) | – | inactive: -0.889%
CCOc1ccc2nc(NC(=S)NCc3ccccc3)sc2c1 | – | inactive: 2.73%
O=C(Cc1ccc(O)cc1)NC1CCCCCC1 | – | inactive: -6.18%
COc1ccc(CCNC(=O)Cn2c(=O)n(Cc3ccco3)c(=O)c3ccc(Cl)cc32)cc1OC | inconclusive [rising, single point] | –
O=C(N1CCOCC1)N1CCN(S(=O)(=O)c2ccc(F)cc2)CC1 | inconclusive [rising, partial curve, poor fit] | –
CCc1nnc(NC(=O)CSc2nc3c(c(=O)n2-c2ccccc2OC)SCC3)s1 | inconclusive [rising, single point] | –
O=C(CSc1nc2ncccc2[nH]1)NCCc1ccccc1 | inconclusive [rising, single point] | –
COc1cc(NC(=S)N2CCCC(CO)C2)cc(OC)c1 (centres undefined) | inconclusive [rising, single point] | –
C=C(C(=O)c1ccccc1)C(c1ccccc1)C(C)C(=O)c1ccccc1 (centres undefined) | – | inactive: 1.7%
Cc1ccccc1S(=O)(=O)Nc1ncnc2ccccc12 | inconclusive [rising, single point] | –
COc1cccc(CNCCNC(=O)c2nonc2N)c1 | – | inactive: 0.2%
COc1ccc(OC)c(NC(=O)CS(=O)(=O)Cc2nc(-c3ccccc3C)oc2C)c1 | inconclusive [rising, single point] | –
O=C1NC(=NCc2ccccc2)S/C1=C\c1ccccc1 | inconclusive [rising, single point] | –
O=C(Nc1ccc(Br)c2cccnc12)c1ccc(Cn2cc([N+](=O)[O-])cn2)o1 | inconclusive [rising, partial curve] | –
O=C(Nc1nnc(C2CC2)s1)C1CCCO1 (centres undefined) | inconclusive [rising, single point] | –
CCOC(=O)CCN(c1ccccc1)S(=O)(=O)c1ccc(-c2ccc(=O)[nH]n2)s1 | – | inactive: 0.981%
CN(C)/C=C1\C=C(c2ccccc2)OC1=O | inconclusive [rising, full curve, poor fit] | –
CCOC(=O)Cc1csc(N/C(=N/S(=O)(=O)c2ccc(Cl)cc2)c2ccccc2)n1 | – | inactive: 2.31%
O=C(CSc1ccccn1)N/N=C/c1cc([N+](=O)[O-])ccc1O | – | inactive: -5.52%

Compound | Potency | activation
Cc1ccc(OCC(=O)N2CCN(S(=O)(=O)c3ccccc3[N+](=O)[O-])CC2)cc1 | inconclusive [rising, partial curve] | –
Cn1c(NCc2ccccc2)nc2c1c(=O)n(Cc1ccc(Br)cc1)c(=O)n2C | inconclusive [rising, single point] | –
COCCn1c(=S)[nH]c2ncccc2c1=O | inconclusive [rising, single point] | –
COc1cc2c(cc1OC)CN(C(=O)CSc1nc(N)c(C#N)cc1C#N)CC2 | inconclusive [rising, single point] | –
Cc1ccc(NS(=O)(=O)c2ccc3[nH]c(=O)c(=O)[nH]c3c2)cc1Cl | inconclusive [rising, full curve] | –
NC(=O)COC(=O)/C=C/c1cccc(Br)c1 | inconclusive [rising, single point] | –
O=S(=O)(c1ccccc1)N1CCN(S(=O)(=O)c2ccc(F)cc2)CC1 | inconclusive [rising, full curve, poor fit] | –
O=c1[nH]c2ccccc2nc1Cc1ccc([N+](=O)[O-])cc1 | inconclusive [rising, partial curve] | –
COc1ccc(/C=N/Nc2ncnc3scc(-c4ccccc4)c23)cc1OC | – | inactive: 3.05%
O=[N+]([O-])c1ccc(NCCCN2CCOCC2)c([N+](=O)[O-])c1 | inconclusive [rising, single point] | –
Cc1cc(C)c2[nH]c(=O)c(CN(CC3CCCO3)C(=S)Nc3ccccc3)cc2c1 (centres undefined) | – | inactive: -1.18%
c1ccc(-c2cn3nc(-c4ccccc4)c(-c4ccccc4)nc3n2)cc1 | – | inactive: 2.23%
CC(C)c1nc2sc(C(=O)O)c(N)c2c2c1CCCC2 | inconclusive [rising, single point] | –
Cc1ccc(/C=N/NC(=O)c2cccc3ccccc23)o1 | – | inactive: 8.15%
COc1ccc(-c2csc(Cc3nc(O)cs3)n2)cc1 | inconclusive [rising, single point] | –
CCOc1cc(Cl)c(S(=O)(=O)NCc2cccnc2)cc1Cl | – | inactive: 0.0765%
CCOC(=O)c1c(-c2ccc(C)o2)csc1NC(=O)CSc1ncn[nH]1 | inconclusive [rising, partial curve] | –
Cc1ccc(NC(=O)CN2C(=O)S/C(=C\c3cccn3-c3cccc(C(=O)O)c3)C2=O)c(C)c1 | inconclusive [rising, single point] | –
Cc1ccc(S(=O)(=O)N2CCN(C(=O)CSc3nnc(-c4ccco4)o3)CC2)cc1 | inconclusive [rising, partial curve] | –
O=C(CSc1nc(C2CC2)nc2ccccc12)N1c2ccccc2Sc2ccccc21 | – | inactive: 0.501%
COc1ccc(C(=O)N2CCC(n3c(C)nc4cc(F)ccc43)CC2)cc1OC | inconclusive [rising, partial curve] | –
C=CCOC(=O)c1[nH]c2c(c1C)C(=O)CC(c1ccco1)C2 (centres undefined) | inconclusive [rising, single point] | –
CCOC(=O)c1c(-c2cccc([N+](=O)[O-])c2)csc1NC(=O)C1CCCCC1 | – | inactive: 2.25%
COc1cc(/C=C/C(=O)CC(=O)/C=C/c2ccc(O)c(OC)c2)ccc1O | inconclusive [rising, single point] | –
